No constants are given. Whether binding was seen depends on the method and setting. For part of these data: Binding seen in cells or lysates may run through a third protein. Some results given as binding are weak or reduced against the parent protein; the word gives no strength. For part of these data: Tags and fused reporters may be left off the sequences shown.
What was measured:
[1] = biological target: GST-YWHAE (not stated (human or mouse cDNA cloned)) (UniProt P62258); assay: pull-down; purified GST-YWHAE or GST-YWHAZ immobilised on glutathione sepharose 4B beads, purified SOD1-His (200 μg) at ratios 2:1, 1:1 and 1:2, 4 °C, 1 h, 20 mM Tris, 300 mM NaCl, 2 mM β-mercaptoethanol, 1 mM PMSF, pH 8.0; SDS-PAGE with Coomassie blue or Western blot; both purified
[2] = biological target: GST-YWHAZ (not stated (human or mouse cDNA cloned)) (UniProt P63104); assay: as above
[3] = biological target: T1, ATPG tagged with F2 at the N-terminus (negative control protein) (UniProt P36542); assay: split reporter; protein complementation assay (PCA) with YFP fragments F1 (SOD1, prey) and F2 (candidates, bait) in HEK293T cells, 100 ng of each vector, read 72 h after transfection at excitation 512 nm and emission 529 nm or by confocal imaging; fold change normalised to the vector controls in the same orientation; some cells treated with diquat, TBHP, NAC or ebselen (50 μM)
T1 sequence: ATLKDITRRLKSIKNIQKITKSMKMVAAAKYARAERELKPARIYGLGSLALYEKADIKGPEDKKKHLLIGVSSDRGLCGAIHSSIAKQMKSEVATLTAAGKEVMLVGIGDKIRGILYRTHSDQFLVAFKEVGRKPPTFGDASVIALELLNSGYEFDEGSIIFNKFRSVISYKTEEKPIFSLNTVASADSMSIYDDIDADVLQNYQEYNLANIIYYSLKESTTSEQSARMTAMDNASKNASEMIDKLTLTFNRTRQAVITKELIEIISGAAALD

Chains of the proteins cited; added tags and fusions are not shown. Lines headed by an entry give the natural chain unless they say otherwise; changes in a name come on top.
UniProt P62258: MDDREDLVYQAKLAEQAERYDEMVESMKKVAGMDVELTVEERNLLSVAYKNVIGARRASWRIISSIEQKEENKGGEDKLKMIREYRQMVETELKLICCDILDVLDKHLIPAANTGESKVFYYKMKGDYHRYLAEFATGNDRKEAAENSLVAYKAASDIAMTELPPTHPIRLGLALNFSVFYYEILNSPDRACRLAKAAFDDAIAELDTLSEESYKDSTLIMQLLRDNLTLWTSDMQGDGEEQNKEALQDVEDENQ
UniProt P63104: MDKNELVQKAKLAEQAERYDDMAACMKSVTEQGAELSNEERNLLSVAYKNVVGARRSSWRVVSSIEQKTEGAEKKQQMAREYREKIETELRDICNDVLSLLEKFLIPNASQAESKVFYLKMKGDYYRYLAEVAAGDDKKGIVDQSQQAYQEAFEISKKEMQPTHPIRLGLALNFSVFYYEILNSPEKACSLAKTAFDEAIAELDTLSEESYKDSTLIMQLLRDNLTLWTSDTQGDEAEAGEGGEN
UniProt P00441: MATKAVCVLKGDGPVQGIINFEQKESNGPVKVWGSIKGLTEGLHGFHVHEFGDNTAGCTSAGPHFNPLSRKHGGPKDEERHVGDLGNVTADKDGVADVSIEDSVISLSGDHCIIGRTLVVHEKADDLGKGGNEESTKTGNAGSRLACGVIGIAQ

[4] = biological target: T2, ATPG tagged with F2 at the C-terminus (negative control protein) (UniProt P36542); assay: as above
T2 sequence: T1 sequence

[5] = biological target: SOD1-His (not stated (human or mouse cDNA cloned)) (UniProt P00441); assay: pull-down; purified SOD1-His (100 μg) held by anti-SOD1 antibody on agarose beads G, purified YWHAZ-His (100 μg) added, 4 °C, 1 h, 20 mM Tris pH 8.0, 300 mM NaCl, 2 mM β-mercaptoethanol, 1 mM PMSF; eluates blotted with anti-His antibody; both purified
[6] = biological target: WT-SOD1-F1N (human copper-zinc superoxide dismutase 1 with YFP fragment F1 at the N-terminus) (human) (UniProt P00441); assay: co-IP; HepG2 cells transfected with WT-SOD1-F1N, SOD1-H46R-F1N, SOD1-G93A-F1N or F1N vector for 72 h; lysate (1 mg protein) precipitated with SOD1 antibody and Protein A magnetic beads; blots for SOD1, YWHAE and YWHAZ

binding [3] | binding [4] | binding [6] | Substance | further results
 |  |  | SOD1-His (from UniProt P00441 1-154) (enzyme) | binding [1]: binds; binding [2]: binds
no binding | no binding |  | WT-SOD1-F1C (human copper-zinc superoxide dismutase 1 with YFP fragment F1 at the C-terminus) (from UniProt P00441 1-154) (enzyme) | 
no binding | no binding |  | WT-SOD1-F1N (human copper-zinc superoxide dismutase 1 with YFP fragment F1 at the N-terminus) (from UniProt P00441 1-154) (enzyme) | 
 |  |  | YWHAZ-His (from UniProt P63104 1-245) | binding [5]: binds
 |  | binds | endogenous YWHAE of HepG2 cells (from UniProt P62258 1-255) | 
 |  | binds | endogenous YWHAZ of HepG2 cells (from UniProt P63104 1-245) | 

— publication PMC9966940
